Test results as given in publication PMC4336329 (PLoS ONE, 2015).
Hit rate of the full screen: of about 310,000 compounds, about 14,000 (4.5%) showed an effect of 50% or more. Effects have a minus sign here. The list shows a part of the results.

Molecular target: human ether-à-go-go-related gene (hERG) potassium channel (human, UniProt Q12809)
Test: primary screen, population patch clamp on CHO cells stably expressing hERG
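Further: peak tail current of the secondary pulse compared with the same well before compound.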

Chain of human ether-à-go-go-related gene (hERG) potassium channel (Q12809 whole entry, looked up): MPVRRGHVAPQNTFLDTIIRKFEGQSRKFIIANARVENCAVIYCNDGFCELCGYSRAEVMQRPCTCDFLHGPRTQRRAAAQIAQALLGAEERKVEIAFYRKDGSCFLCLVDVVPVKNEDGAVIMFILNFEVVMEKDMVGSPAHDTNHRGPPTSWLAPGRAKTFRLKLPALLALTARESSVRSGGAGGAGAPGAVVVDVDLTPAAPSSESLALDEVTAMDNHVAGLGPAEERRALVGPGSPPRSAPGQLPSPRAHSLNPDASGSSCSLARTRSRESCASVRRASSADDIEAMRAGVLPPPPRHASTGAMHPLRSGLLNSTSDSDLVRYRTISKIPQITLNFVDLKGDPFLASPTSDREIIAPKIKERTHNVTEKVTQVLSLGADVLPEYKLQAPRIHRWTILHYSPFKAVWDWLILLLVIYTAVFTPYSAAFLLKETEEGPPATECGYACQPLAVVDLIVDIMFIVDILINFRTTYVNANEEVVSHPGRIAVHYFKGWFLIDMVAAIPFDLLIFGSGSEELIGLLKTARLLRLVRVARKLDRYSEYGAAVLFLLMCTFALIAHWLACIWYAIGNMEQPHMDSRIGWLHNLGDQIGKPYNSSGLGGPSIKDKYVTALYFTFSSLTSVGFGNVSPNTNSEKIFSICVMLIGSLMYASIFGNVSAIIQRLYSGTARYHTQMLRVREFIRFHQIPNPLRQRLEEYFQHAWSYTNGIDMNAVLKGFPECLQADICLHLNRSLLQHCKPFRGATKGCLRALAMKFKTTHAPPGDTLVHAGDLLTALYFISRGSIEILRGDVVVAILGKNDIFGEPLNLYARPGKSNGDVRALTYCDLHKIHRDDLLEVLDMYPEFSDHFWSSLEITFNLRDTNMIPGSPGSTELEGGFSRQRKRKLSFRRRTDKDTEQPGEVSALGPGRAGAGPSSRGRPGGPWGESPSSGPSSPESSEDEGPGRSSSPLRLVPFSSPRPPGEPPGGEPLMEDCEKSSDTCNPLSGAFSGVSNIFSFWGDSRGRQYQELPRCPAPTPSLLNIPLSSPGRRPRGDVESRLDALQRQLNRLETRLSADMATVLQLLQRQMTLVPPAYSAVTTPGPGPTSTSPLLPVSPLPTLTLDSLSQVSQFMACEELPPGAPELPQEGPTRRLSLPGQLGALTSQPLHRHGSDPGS

| Compound | hERG current change (%, negative = inhibition) at 10uM |
| --- | --- |
| COc1ccc(Nc2nc(NN)nc(Nc3ccc(OC)cc3)n2)cc1 | 4.64% |
| COc1cc(C2C(C(=O)c3ccc(C)o3)=C(O)C(=O)N2c2cc(C)on2)ccc1O (centres unmarked) | 2.16% |
| Cc1nnc(NC(=O)c2ccc(-c3cccc(C(F)(F)F)c3)o2)s1 | 6.41% |
| Br.COc1ccc(-c2nc(C)sc2C)cc1 | -6.46% |
| O=C(Nc1sc2c(c1-c1nc3ccccc3[nH]1)CCCC2)C1CCCC1 | 6.08% |
| O=C(C1=C[C@H](c2ccc(C(F)(F)F)cc2)C[C@H](OCc2ccc(CO)cc2)O1)N1CCOCC1 | -26.7% |
| COc1ccc(C2(O)CCN(CC(=O)Nc3nc(-c4ccccc4)cs3)CC2)cc1 | -10.1% |
| CCOC(=O)c1ccc(NC(=O)Cn2nnc(-c3ccccc3F)n2)cc1 | 4.41% |
| CC1CCCC(C)N1C(=O)CSc1nnc(COc2ccc(F)cc2)o1 (centres unmarked) | 6.64% |
| O=C1c2ccccc2NC(c2ccc([N+](=O)[O-])cc2)N1O (centres unmarked) | -11.1% |
| CCn1cc([C@@H]2C[C@H]3CN(Cc4cccc(Cl)c4)C(=O)[C@]34CCCN24)c(C)n1 | -41.7% |
| Cn1ccsc1=NC(=O)c1cc(S(=O)(=O)N2CCOCC2)ccc1F | -6.62% |
| CC1(c2nnc(-c3ccc(F)cc3)o2)CC(c2cccnc2)=NO1 (centres unmarked) | 9.6% |
| CCc1cccc2c(=O)c(C(=O)N3CCCCCC3)c[nH]c12 | -7.1% |
| CCOC(=O)c1c(C)[nH]c(C(=O)NNC(=O)c2ccccc2)c1C | -11.8% |
| O=C(Nc1nc(-c2ccc(Cl)s2)cs1)c1ccccc1 | -6.58% |
| CCn1c(SCC(=O)Nc2nc(C)c(C)s2)nc2cccnc21 | -1.75% |
| O=C(Cn1ncc2c(=O)oc3ccccc3c21)N1CCCc2ccccc21 | -36.3% |
| CCOC(=O)c1cc(-c2ccccc2)sc1NC(=O)C(C)C | 13.8% |
| C=CCN(c1cccc(C(F)(F)F)c1)S(=O)(=O)c1cccc(C(=O)OCC(=O)NC(N)=O)c1 | -6.14% |
| CCc1ccc(C(C(=O)NCc2ccccc2)N(C(=O)c2csnn2)C2CC2)cc1 (centres unmarked) | -24.3% |
| CCOc1ccccc1NC(=O)C1CCC(CNc2c(N3CCOCC3)c(=O)c2=O)CC1 (centres unmarked) | 8.54% |

| Compound | hERG current change (%, negative = inhibition) at 10uM |
| --- | --- |
| CN(CC(=O)Nc1ccc(N2CCOCC2)cc1)C(=O)c1cc(F)c(F)cc1Cl | -38.3% |
| COc1cc(NC(=O)/C=C/c2ccccc2[N+](=O)[O-])cc(OC)c1 | 7.65% |
| Cc1ccc(C(=O)NC(=S)Nc2ccc(N3CCOCC3)cc2)c(C)c1 | -13.7% |
| CC(=O)N(c1ccccc1C)C1CCCC1 | 7.62% |
| O=C(OCC(=O)N1CCc2ccccc21)c1ccccn1 | 13.1% |
| Cc1cccc(C(=O)NCCNC(=O)c2ccco2)c1 | 12.2% |
| CN(Cc1cccs1)C(=O)COc1ccc(-c2nnco2)cc1 | 14.2% |
| CCc1ccc(OCCOCC(O)CNC(C)(C)C)cc1.Cl (centres unmarked) | -4.94% |
| CC(=O)C1C(c2ccc(F)c(F)c2)NC(=O)NC1(O)C(F)(F)F (centres unmarked) | 11.8% |
| COc1cccc2c(C)c(C(=O)O)[nH]c12 | 2.19% |
| O=C(Nc1ccccn1)c1ccc(Cl)s1 | 4.9% |
| CC(c1ccccc1F)n1cc(C(=O)NCCc2ccco2)nn1 (centres unmarked) | -11% |
| CCN1C(=O)c2cccc3c(S(=O)(=O)NCc4ccccc4)ccc1c23 | -26.1% |
| N#CC1=C(N)Oc2n[nH]c(-c3ccccc3)c2C1c1cccnc1 (centres unmarked) | 7.17% |
| COc1cccc(N2CCN(c3ccc4nnc(CCC(=O)N5CCC(C)CC5)n4n3)CC2)c1 | -66.4% |
| O=C(COc1ccc(F)c(Cl)c1)c1ccc[nH]1 | -3.97% |
| Cc1cc(Nc2ccccc2)nc(N)n1 | 4.4% |
| COc1cc(Cl)cc2c1Sc1ccccc1/C2=C/CCN(C)C.O=S(=O)(O)O | -48.7% |
| c1cncc(-c2nc(NCc3ccc4c(c3)OCO4)c3ccccc3n2)c1 | -16.6% |
| COc1ccc(C(=O)N/C(=C/c2cccnc2)C(=O)Nc2cccc(C(C)=O)c2)cc1OC | 21.2% |
| COc1ccc(-c2nc(NC(=O)c3[nH]c(C)c(C(C)=O)c3C)sc2C)cc1 | 1% |
| COc1ccc(-n2c(C)c([N+](=O)[O-])c3ccc(O)c(CN(C)C)c32)cc1 | -57.6% |

| Compound | hERG current change (%, negative = inhibition) at 10uM |
| --- | --- |
| CC(=O)Nc1ccc2c(c1)ncn2-c1ccc(C)cc1 | -1.92% |
| Cc1ccc(Sc2cc(C(F)(F)F)nc(N(C)C)n2)cc1 | 10.3% |
| COCc1ccc(CN2CCC(Oc3ccc(C(=O)NCc4ccccn4)cc3)CC2)o1 | 32.5% |
| O=C(Cc1ccc(NC2=NC3CS(=O)(=O)CC3S2)cc1)NCc1ccccc1Cl (centres unmarked) | 6.5% |
| CCn1c(SCC(=O)N(C)CC(=O)Nc2ccc(F)c(F)c2F)nnc1-c1ccco1 | 4.16% |
| CCOc1cc(/C=C/C(=O)O)ccc1OCCOc1ccc(F)cc1 | -5.87% |
| Cc1ccc(S(=O)(=O)N(C)C)cc1NC(=O)COC(=O)CSc1ccccc1 | -21.3% |
| Fc1ccc(NC(=S)N2N=CCC2c2ccccc2)cc1 (centres unmarked) | -32% |
| Cn1cnnc1SCC(=O)Nc1ccc(Cl)cn1 | 14.5% |
| O=C1N(c2cccc(Cl)c2)C(c2cccnc2)N2CCCN12 (centres unmarked) | -4.39% |
| Cc1ccc(OCC(=O)Oc2cccc(C)c2)cc1 | 25.8% |
| COc1ccc(NC(=O)Cn2c(=O)n(CCC(=O)NCC3CCCO3)c(=O)c3cc(OC)c(OC)cc32)cc1 (centres unmarked) | 11.5% |
| Cc1occc1C(=O)NNC(=O)c1nn(C)c(=O)c2ccccc12 | 8.46% |
| O=S(=O)(c1cccc2nonc12)N1CCN(c2ccc(F)cc2)CC1 | 10.1% |
| COc1ccccc1-c1nnc(NC(=O)OCC(C)C)s1 | 0.412% |
| CCC(c1nc2ccccc2c(=O)n1CCN1CCOCC1)N1C(=O)c2ccccc2C1=O (centres unmarked) | -15.5% |
| CSc1ccc(/C=C(\NC(=O)c2ccco2)C(=O)N2CCCCC2)cc1 | -29.6% |
| COc1cccc(C(=O)Nc2ccc(C(=O)NCC(C)C)cc2)c1 | 8.38% |
| CCOC(=O)CN(C(=O)CNC(=O)c1ccco1)C(C(=O)NC1CCCCC1)c1cccc(OC)c1 (centres unmarked) | 2.32% |
| Cc1onc(-c2ccccc2)c1C(=O)N/N=C/c1cc2c(cc1Br)OCO2 | 8.42% |
| CCN(CC(=O)NCc1cccs1)S(=O)(=O)c1c(F)cccc1F | 0.594% |
| O=C(Nc1ccc(N2CCOCC2)cc1)c1ccc(Cl)cc1N1CCCC1=O | -8.24% |

| Compound | hERG current change (%, negative = inhibition) at 10uM |
| --- | --- |
| O=C(N/C(=C\c1ccc(Br)cc1)C(=O)N1CCOCC1)c1ccccc1Cl | -2.31% |
| CCOCCOCN(C#N)c1nc(OC)nc(N(C)C)n1 | 15.8% |
| COc1ccc(O)c(C(=O)c2cc(C(=O)NCCc3ccccc3)c(=O)n(CCc3ccccc3)c2)c1 | -2.37% |
| COC(=O)c1ccccc1S(=O)(=O)N1CCC(C(=O)N(C)CCOc2ccccc2)CC1 | -3.11% |
| CCCc1nc2scc(-c3ccc(C)cc3)c2c(=O)n1N | 10.3% |
| O=C(N/N=C/c1c[nH]c2ccccc12)C1CC(=O)N(c2ccccc2)C1 (centres unmarked) | 10.1% |
| O=C(CCN1C(=O)c2ccccc2C1=O)Nc1ccc(F)cc1 | -6% |
| COc1ccc(-n2nc(C(=O)NCC(=O)N3CCOCC3)c3ccccc3c2=O)c(OC)c1 | 9.32% |
| CC1=CC2=NC(=O)/C(=C\c3cc(C)n(-c4cccc(Cl)c4)c3C)C(=N)N2O1 | -0.972% |
| COc1ccc(N2CCN(CCNC(=O)c3nnc(Cc4c(F)cccc4Cl)o3)CC2)cc1 | -5.6% |
| Cc1c(NC(=O)/C=C/c2cn(-c3ccccc3)nc2-c2ccccc2)c(=O)n(-c2ccccc2)n1C | -17.7% |
| COc1ccc(C(=O)NCC(=O)N2CCNC(=O)C2)cc1OC | 22.9% |
| c1ccc(-n2c(-c3ccncc3)nnc2-c2ccco2)cc1 | -20.6% |
| COc1cc(OC)c2c(c1C(CCN1CCOCC1)c1ccc(N(C)C)cc1)OC(=O)CC2c1ccc(N(C)C)cc1 (centres unmarked) | 17% |
| CCOC(=O)N1CCN(C(=S)Nc2cc(S(=O)(=O)N3CCOCC3)ccc2Cl)CC1 | 3.28% |
| CCOc1ccc2nc(SCC(=O)N(CC(C)C)c3c(N)n(Cc4ccccc4)c(=O)[nH]c3=O)[nH]c2c1 | -4.56% |
| COc1ccccc1C(=O)NCC(=O)NCCC(c1ccccc1)c1ccccc1 | -64.4% |
| C/C(=N\NC(N)=S)c1ccc2c(c1)OCCO2 | 10% |
| Cc1ccc2c(c1)sc1nc(=O)n(-c3ccc(Cl)cc3)c(=O)n12 | 6.6% |
| CCCCCCCCS(=O)c1sc2nc3c(cc2c1N)CCCC3 (centres unmarked) | 11.9% |
